# Source: ChEMBL document CHEMBL4888484, “Replenishing the malaria drug discovery pipeline: Screening and hit evaluation of the MMV Hit Generation Library 1 (HGL1) against asexual blood stage Plasmodium falciparum ,using a nano luciferase reporter read-out” (2022)
# The campaign covered roughly 150,000 compounds. About 540 (0.36%) showed an effect of 50% or more. This is one part of the list.
# Tested on: Plasmodium falciparum
# Test: Primary screen in NF54 nanoGlo assay, in single point, at 2uM, 72h; a lower Z score goes with more inhibition
# Format: functional, Erythrocyte
# Conditions: timepoint 72 hour
SMILES,% Inhibition [%],Z score
O=C(Nc1ccc2ccccc2c1)c1ccncc1,-3,0.43
CCCCCNC(=O)CNC(=O)c1ccc(Cl)c(Cl)c1,-8,0.84
CC(=O)N1CCCN(CC(=O)N2CCc3sccc3C2)CC1,-15,1.58
CCOC(=O)C1CCCN(C(C)C(N)=O)C1 (stereo not drawn),-3,0.61
CCn1cnnc1CN(C)Cc1ccc(OC)nc1,-3,0.65
C[C@@H](CCc1ccccc1)NC(=O)NCCCCS(N)(=O)=O,-17,2.31
Cc1cc(C)c(C#N)c(N2CCCN(S(=O)(=O)Cc3ccccc3)CC2)n1,-1,0.14
CC(=O)c1c(N2CCOCC2)nc(=O)n(-c2ccccc2)c1C,-5,0.73
CCCN1C(=O)[C@@]2(CC(=O)Nc3c2c(C)nn3-c2ncnc3nc[nH]c23)c2ccccc21,3,-0.31
O=C(Cc1cccc(Cl)c1)Nc1nccn1-c1ccccc1,5,-0.79
COc1cc2c(cc1OC)CN(C(=O)C[C@@H]1NC(=O)N(c3ccc(C(C)C)cc3)C1=O)CC2,-3,0.37
CCCOCc1nc(C2(c3ccccc3)CC2)nn1[C@H]1CCS(=O)(=O)C1,-11,1.04
Cc1noc(-c2nc(-c3ccc4c(c3)OCO4)no2)n1,4,-0.41
Cc1cc(-c2cc(S(=O)(=O)NCc3ccc4c(c3)OCO4)c(C)s2)on1,-6,0.58
Cc1ccccc1NC(=O)Cn1cc(-c2noc(-c3ccccc3)n2)nc1C,-7,0.95
COc1cccc(C(=O)N2CCN(C(=O)Cc3c(C)n[nH]c3C)CC2)c1,-2,0.38
Cc1n[nH]c(CN(C)c2nc(CN3CCCCC3)nc3scc(-c4ccccc4)c23)n1,35,-3.57
CCC(CC)NS(=O)(=O)c1ccc(C)cc1,0,-0.06
Cc1nnc(COC(=O)c2cc(O)ccc2C(F)(F)F)n1C,-9,1.52
CC(C1CCCCC1)N1C(=O)NC(CC(F)(F)F)C1=O (stereo not drawn),-17,2.32
COC(=O)[C@H](Cc1ccc(OC)cc1)NC(=O)[C@H]1CN(C(C)=O)CCN1C(=O)C1CCCCC1,0,0.06
CCn1ncc(NC(=O)Cn2ccc3cccc(F)c32)n1,-16,2.28
CN(Cc1ccc(F)cc1)C(=O)[C@@H]1NCc2ncncc21,-5,1
Cn1cnnc1CN1CCC[C@H]1C(=O)NCC1CCCCC1,-4,0.7
Cc1ccc(C(=O)N(C(C)C)C(C)C)c(Cl)c1,12,-1.53
CCc1nnsc1C(=O)N1CCC(C(N)=O)(c2ccccc2)CC1,2,-0.3
COCCCNC(=O)[C@@H]1CC2(CCN(S(=O)(=O)Cc3ccccc3)CC2)C(=O)N1C,-11,1.36

SMILES,% Inhibition [%],Z score
CC(C)N(C)c1cccc(NC(=O)N(C)C2CCC(CO)CC2)c1 (stereo not drawn),-14,1.61
CCOc1cccc(OCC#CCNC)c1,-16,1.7
CCOC(=O)c1ccc(NC(=O)Cn2nc3c(N4CCOCC4)nccn3c2=O)cc1,-1,0.12
CN(C)[C@H]1CN(C(=O)c2cccc(-c3ccc4c(=O)[nH]ccc4c3)c2)C[C@@H]1O,3,-0.6
CS(=O)(=O)NC[C@H](O)C1CCCC1,1,-0.11
Cc1cccc(OCC(=O)N2CCN(S(=O)(=O)c3cc4c(cc3C)NC(=O)CO4)CC2)c1,-8,0.79
COCCOc1nc(-c2ccco2)n(-c2cccc(NC(=O)Nc3cccc(Cl)c3)c2)n1,-6,0.84
Cc1cc(C(=O)N2CC[C@H](Cc3cccc(CO)c3)C2)c2c(C)noc2n1,2,-0.39
COCc1c(C(=O)NCCN2CCOCC2)cnn1-c1ncc2c(n1)-c1ccccc1CCC2,3,-0.44
Cc1cnccc1NC(=O)CC1CCCCC1,-10,0.87
Cc1cc(C(=O)N[C@@H](CNC(=O)OC(C)(C)C)C(F)(F)F)ncn1,-11,1.36
O=C(NCCF)NCC1(Cc2ccc(F)cc2)CC1,2,-0.39
O=C(c1ccnc(C2CC2)n1)N1C[C@@H]2Oc3c(F)ccc(F)c3O[C@@H]2C1,-9,0.93
O=C(C[C@H]1CCS(=O)(=O)C1)Nc1nc(-c2ccc(Br)cc2)cs1,1,-0.08
CCOc1ccc2c(C)c(C(=O)N3C[C@H](C4CC4)[C@@H](N)C3)oc2c1OCC,-4,0.74
Cc1ccc(N[C@H](C#N)c2c(C)[nH]c(=O)[nH]c2=O)cc1,2,-0.2
Cc1n[nH]c(C)c1CNCCc1cccnc1,-8,1.13
COc1cccc(N2CCC[C@H](NC(=O)c3ccnc(OC)n3)C2)c1,-11,1.56
Brc1ccc(-c2noc([C@H]3CCc4cncn4C3)n2)cc1,-7,0.7
O=C1C[C@H](N2CCN(S(=O)(=O)c3ccccc3F)CC2)C(=O)N1c1ccccc1Cl,6,-0.87
Cc1c(NC(=O)CNC[C@H]2CCCO2)cccc1OC1CCCC1,1,-0.17
COc1ccc(CCNC(=O)C(=O)NCC(C)C)cc1,-14,2.11
O=C(NCc1cocn1)C12CCC(C(F)(F)F)(CC1)CC2,-1,0.12
CC(=O)N1CCC(N(Cc2ccc3c(c2)CCO3)S(=O)(=O)c2ccc(C)cc2Cl)CC1,-11,1.5
Cc1noc(C)c1-c1noc(C(F)=C2CCCC2)n1,-8,0.79
Cc1cc(=O)c(OCC(=O)NCc2c(C)nn(C)c2C)c[nH]1,-10,1.48
Cc1ccn2cc(CN(C)Cc3snnc3C)nc2c1,-6,1.2
